From paper PMC7442819, “Taf14 recognizes a common motif in transcriptional machineries and facilitates their clustering by phase separation” (Nature Communications, 2020)
Results are given in words; binding and its absence hold for the method and conditions named. For some of these results: Binding seen in cells or lysates may run through a third protein. Some results given as binding are weak or reduced against the parent protein; the word gives no strength. Blank lines part the entries; values can stand above or below the molecule they belong to.

Chains of the proteins cited; added tags and fusions are not shown. Residues count along the entry.
UniProt P18480, residues 771-800: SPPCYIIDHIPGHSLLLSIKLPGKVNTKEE
UniProt P53115, residues 368-390: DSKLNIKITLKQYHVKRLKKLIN

What was measured:
GST-Taf14_(174–244) = biological target: T1, GST-Taf14_(174–244) (Saccharomyces cerevisiae, UniProt P35189 174-244); assay: pull-down; GST-tagged ET domain (25 μg) and binding partner (50 μg) with glutathione–Sepharose 4B beads; 25 mM Tris-HCl pH 8.0, 150 mM NaCl, 2 mM DTT; 4 °C, 3 h; SDS-PAGE; both purified
T1 construct: Taf14, Saccharomyces cerevisiae, ET domain, residues 174-244; also called GST-Taf14ET; GST-tagged Taf14ET; source: E. coli Rosetta, purified (Ni-NTA, eluted as GST-fused protein, SEC); not shown: 6*His-GST, N-terminal, kept
T1 sequence (looked up): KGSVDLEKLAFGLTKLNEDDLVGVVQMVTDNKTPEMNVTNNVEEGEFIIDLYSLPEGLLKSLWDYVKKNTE

[1] = biological target: Taf14ET (Taf14_(174–244)) (Saccharomyces cerevisiae) (UniProt P35189); assay: condition: 1.0 mM peptide in the syringe, 0.1 mM Taf14ET in the cell; ITC; peptide at 1.0 mM in the syringe titrated into Taf14ET at 0.1 mM in the cell; 20 mM phosphate pH 7.0, 100 mM NaCl, 2 mM DTT; 25 °C; one binding site model; both purified
[2] = biological target: Taf14-HA (Saccharomyces cerevisiae) (UniProt P35189); assay: co-IP; yeast lysate, HA beads precipitate Taf14-HA, blot for TAP; 100 mM HEPES-KOH pH 7.9, 100 mM potassium acetate, 10 mM magnesium acetate; 4 °C, 3 h
[3] = biological target: Taf14ET F220R/I222R (Saccharomyces cerevisiae) (UniProt P35189); assay: condition: 1.0 mM peptide in the syringe, 0.1 mM Taf14ET in the cell; ITC; peptide at 1.0 mM in the syringe titrated into Taf14ET at 0.1 mM in the cell; 20 mM phosphate pH 7.0, 100 mM NaCl, 2 mM DTT; 25 °C; one binding site model; both purified

- binding (GST-Taf14_(174–244)): binds
Molecule: Sumo-fused Snf5_(771–800) (from UniProt P18480 771-800) (domain or fragment)

- binding [1]: no binding
Molecule: Sth1EBM L1204A/V1206A/I1208A/L1210A (Sth1^M4) (from UniProt P32597 1183-1240) (domain or fragment)

- binding (GST-Taf14_(174–244)): binds
Molecule: Sumo-fused Ino80_(368–390) (from UniProt P53115 368-390) (domain or fragment)

- binding [2]: binds
Molecule: Sth1^M4-TAP (from UniProt P32597 1-1359)

- binding (GST-Taf14_(174–244)): no binding
Molecule: bromodomain of Sth1 (Sth1_(1248–1359)) (from UniProt P32597 1248-1359) (domain or fragment)

- binding [2]: binds
Molecule: Sth1^WT-TAP (from UniProt P32597 1-1359)

- binding [3]: no binding
B1: Sth1EBM (Sth1_(1183–1240)) (domain or fragment, Saccharomyces cerevisiae, UniProt P32597 1183-1240, looked up)
chain: EVKSSSVEIINGSESKKKKPKLTVKIKLNKTTVLENNDGKRAEEKPESKSPAKKTAAK
notes: source: E. coli Rosetta, purified (Ni-NTA, on-beads digestion, SEC)
